# Test results reported in PubChem BioAssay AID588855 (National Center for Advancing Translational Sciences (NCATS), 2011).
# The campaign covered roughly 410,000 compounds. About 5,000 (1.2%) were called active. The shares of active, inactive and inconclusive entries below differ from those in the screen. Calls follow the shape of the dose curve; as a rule, active = well fitted inhibition curve with a large enough effect; inconclusive = small, poorly fitted or top-dose-only effect; inactive = no such curve, though single readings can be large or run the other way. Potencies beside an inconclusive call are fits to weak or partial responses and may not hold up.
# Test: qHTS for Inhibitors of TGF-b; also: nearly all actives have a fitted effect of over 65% in size
# Conditions: HepG2 CAGA-GFP TGF-b/SMAD3 reporter, GFP fluorescence, 18 h, TGF-beta stimulated, 500 pg/mL final; series mostly up to 46.1 µM; activity, negative = inhibition: at the top concentration
# In short: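 Per well, imaged GFP fluorescence of HEPG2 CAGA-GFP cells gives the signal; cells get compound, then TGF-beta (500 pg/mL final), 18 h at 37 degrees C; %Activity versus -TGF-beta and +DMSO controls.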
# % is scaled to controls: 0 for no effect and ±100 for the full control effect; potency is read from the fitted curve at half-maximal effect; tags tell the direction and shape of the fitted curve.
Structure (SMILES),Potency,"activity, negative = inhibition"
COc1ccc(-n2cnnc2SCC(=O)NC2CCCc3ccccc32)cc1 (stereo not drawn),"inconclusive: 11.2 µM [inhibitor, partial curve, poor fit]",
COc1ccc(-c2csc(=Nc3c(C)n(C)n(-c4ccccc4)c3=O)n2C(C)(C)C)cc1,,inactive: 4.18%
Cc1cc(NC(=O)c2cc3cccc([N+](=O)[O-])c3[nH]2)ccc1F,"inconclusive: 25.1 µM [inhibitor, single point]",
CCOc1ccc(N=Cc2c(O)c3ccccc3oc2=O)cc1,,inactive: -25.2%
CCOC(=O)c1cc(-c2ccc(F)cc2)n(CCC(=O)NCCc2ccc(C)cc2)c1C,"inconclusive: 14.1 µM [inhibitor, partial curve, poor fit]",
COC(=O)c1cc(C(=O)N2CCN(C(=O)c3ccco3)CC2)cc([N+](=O)[O-])c1,"inconclusive: 0.631 µM [inhibitor, full curve]",
Cc1ccc(CN(Cc2ccco2)C(=O)COc2ccc(Cl)cc2)o1,"inconclusive: 20 µM [inhibitor, partial curve, poor fit]",
Fc1ccc(/C=N/Nc2ncnc3nc[nH]c23)cc1F,"inconclusive: 11.2 µM [inhibitor, partial curve, poor fit]",
O=C(CCNS(=O)(=O)c1cccc2nonc12)Nc1ccc(Cl)cc1,"inconclusive: 0.708 µM [inhibitor, full curve, poor fit]",
FC(F)(F)c1cccc(NC(=S)NC(c2ccccc2)c2ccccc2)c1,"inconclusive: 8.91 µM [inhibitor, partial curve, poor fit]",
CC1(Cc2ccc(OC(F)(F)F)cc2)C(=O)Nc2c(Cl)ccc(Cl)c21 (stereo not drawn),active: 15.8 µM,
COc1cccc(C#Cc2c(C=O)n(C)c3ccccc23)c1,"inconclusive: 0.708 µM [inhibitor, partial curve, poor fit]",
COc1cc(NC(=O)CCc2c(C)nc3nc(C)nn3c2C)cc(OC)c1,"inconclusive: 5.62 µM [inhibitor, single point]",
CSCCC(NS(=O)(=O)c1ccc2c(c1)oc(=O)n2C)C(=O)N1CCN(c2cccc(Cl)c2)CC1 (stereo not drawn),"inconclusive: 1.41 µM [inhibitor, partial curve, poor fit]",
COc1ccc(CCNC(=O)c2cnc3sc(N4CCCC4)nn3c2=O)cc1OC,"inconclusive: 22.4 µM [inhibitor, single point]",
COc1ccc(OC)c(/C=C/c2cc3ccccc3c[n+]2C)c1,,inactive: -5.4%
COc1cccc(/C=N/NC(=S)NC2CC3CC2C2C=CCC32)c1O (stereo not drawn),,inactive: -4.2%
Cc1ccc(/C=C(\NC(=O)c2ccc(C)cc2)C(=O)NCCCn2ccnc2)cc1,,inactive: 2.69%
